The other results are listed elsewhere or left out.
target: T1, MBP-FoxP1dN (Mus musculus, UniProt P58462 326-579); assay: PD-seq (MBP pull-down with sequencing); 20 mM Tris-HCl pH 7.5, 100 mM NaCl, 1.5 mM MgCl2, 0.4 uM protein, 0.1 uM dsDNA library, 30 min, room temperature, amylose pull-down; high values mean tight binding; settings: protein: recombinant; tags: His6-MBP; chain copies: 2; dsDNA, one strand shown
T1 sequence: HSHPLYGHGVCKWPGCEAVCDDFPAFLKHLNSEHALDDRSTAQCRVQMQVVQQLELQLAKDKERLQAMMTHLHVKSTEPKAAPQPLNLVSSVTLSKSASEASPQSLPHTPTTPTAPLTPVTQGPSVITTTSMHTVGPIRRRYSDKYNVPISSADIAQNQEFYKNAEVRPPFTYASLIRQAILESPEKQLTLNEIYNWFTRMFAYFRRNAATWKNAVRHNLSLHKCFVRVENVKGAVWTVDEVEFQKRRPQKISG
How it was run: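 His6-MBP-tagged mouse FoxP3 or FoxP1 fragment lacking the N-terminus, expressed in E. coli, was mixed at 0.4 µM with 0.1 µM Klenow-filled double-stranded degenerate DNA library. Incubation was 30 min at room temperature in Tris pH 7.5 buffer with NaCl and MgCl2. Complexes were caught on amylose resin and washed three times; DNA was released with proteinase K, PCR-barcoded and Illumina-sequenced. Binding is reads-per-million enrichment, pull-down over input, with replicates pooled.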

Sequence	binding signal
GATGATTGTTCTCCCAGCTGATGAATTAGCTCTCTCGAGTAAACAAATTTTCCTAATCTTTCTGTTCAAGCGCCATCTAC	0.816 RPM ratio (pull-down/input)
GATGATTGTTCTCCCAGCTGATGAATTTCACAGGTCGAGTAAACAAATTTTCCTAATCTTTCTGTTCAAGCGCCATCTAC	0.774 RPM ratio (pull-down/input)
GATGATTGTTCTCCCAGCTGATGAATTGAACCTCTCGAGTAAACAAATTTTCCTAATCTTTCTGTTCAAGCGCCATCTAC	0.836 RPM ratio (pull-down/input)
GATGATTGTTCTCCCAGCTGATGAATTTCGCGACTCGAGTAAACAAATTTTCCTAATCTTTCTGTTCAAGCGCCATCTAC	0.864 RPM ratio (pull-down/input)
GATGATTGTTCTCCCAGCTGATGAATTAGGGGGTTCGAGTAAACAAATTTTCCTAATCTTTCTGTTCAAGCGCCATCTAC	0.91 RPM ratio (pull-down/input)
GATGATTGTTCTCCCAGCTGATGAATTACTTGGATCGAGTAAACAAATTTTCCTAATCTTTCTGTTCAAGCGCCATCTAC	0.979 RPM ratio (pull-down/input)
GATGATTGTTCTCCCAGCTGATGAATTCGAAATTTCGAGTAAACAAATTTTCCTAATCTTTCTGTTCAAGCGCCATCTAC	0.896 RPM ratio (pull-down/input)
GATGATTGTTCTCCCAGCTGATGAATTTCTTACCTCGAGTAAACAAATTTTCCTAATCTTTCTGTTCAAGCGCCATCTAC	0.888 RPM ratio (pull-down/input)
GATGATTGTTCTCCCAGCTGATGAATTTGGGGTCTCGAGTAAACAAATTTTCCTAATCTTTCTGTTCAAGCGCCATCTAC	0.838 RPM ratio (pull-down/input)
GATGATTGTTCTCCCAGCTGATGAATTATCGTTATCGAGTAAACAAATTTTCCTAATCTTTCTGTTCAAGCGCCATCTAC	1.11 RPM ratio (pull-down/input)
GATGATTGTTCTCCCAGCTGATGAATTTGGTGCGTCGAGTAAACAAATTTTCCTAATCTTTCTGTTCAAGCGCCATCTAC	1.04 RPM ratio (pull-down/input)
GATGATTGTTCTCCCAGCTGATGAATTTGAGTCCTCGAGTAAACAAATTTTCCTAATCTTTCTGTTCAAGCGCCATCTAC	0.74 RPM ratio (pull-down/input)
GATGATTGTTCTCCCAGCTGATGAATTCTATGTGTCGAGTAAACAAATTTTCCTAATCTTTCTGTTCAAGCGCCATCTAC	1.03 RPM ratio (pull-down/input)
GATGATTGTTCTCCCAGCTGATGAATTCGCAGGTTCGAGTAAACAAATTTTCCTAATCTTTCTGTTCAAGCGCCATCTAC	0.782 RPM ratio (pull-down/input)
GATGATTGTTCTCCCAGCTGATGAATTAGTATTCTCGAGTAAACAAATTTTCCTAATCTTTCTGTTCAAGCGCCATCTAC	0.982 RPM ratio (pull-down/input)
GATGATTGTTCTCCCAGCTGATGAATTACAGATTTCGAGTAAACAAATTTTCCTAATCTTTCTGTTCAAGCGCCATCTAC	1.19 RPM ratio (pull-down/input)
GATGATTGTTCTCCCAGCTGATGAATTGATGTCTTCGAGTAAACAAATTTTCCTAATCTTTCTGTTCAAGCGCCATCTAC	1.16 RPM ratio (pull-down/input)
GATGATTGTTCTCCCAGCTGATGAATTCGCAACCTCGAGTAAACAAATTTTCCTAATCTTTCTGTTCAAGCGCCATCTAC	0.943 RPM ratio (pull-down/input)
GATGATTGTTCTCCCAGCTGATGAATTTGGGGTGTCGAGTAAACAAATTTTCCTAATCTTTCTGTTCAAGCGCCATCTAC	0.832 RPM ratio (pull-down/input)
GATGATTGTTCTCCCAGCTGATGAATTGATGGTCTCGAGTAAACAAATTTTCCTAATCTTTCTGTTCAAGCGCCATCTAC	0.887 RPM ratio (pull-down/input)

Sequence	binding signal
GATGATTGTTCTCCCAGCTGATGAATTCCTGGTTTCGAGTAAACAAATTTTCCTAATCTTTCTGTTCAAGCGCCATCTAC	0.868 RPM ratio (pull-down/input)
GATGATTGTTCTCCCAGCTGATGAATTCGGCTAGTCGAGTAAACAAATTTTCCTAATCTTTCTGTTCAAGCGCCATCTAC	0.802 RPM ratio (pull-down/input)
GATGATTGTTCTCCCAGCTGATGAATTACTTGAGTCGAGTAAACAAATTTTCCTAATCTTTCTGTTCAAGCGCCATCTAC	0.986 RPM ratio (pull-down/input)
GATGATTGTTCTCCCAGCTGATGAATTCCATCCCTCGAGTAAACAAATTTTCCTAATCTTTCTGTTCAAGCGCCATCTAC	0.832 RPM ratio (pull-down/input)
GATGATTGTTCTCCCAGCTGATGAATTATGCGAATCGAGTAAACAAATTTTCCTAATCTTTCTGTTCAAGCGCCATCTAC	1.08 RPM ratio (pull-down/input)
GATGATTGTTCTCCCAGCTGATGAATTCCAACCGTCGAGTAAACAAATTTTCCTAATCTTTCTGTTCAAGCGCCATCTAC	0.834 RPM ratio (pull-down/input)
GATGATTGTTCTCCCAGCTGATGAATTTCCAGGGTCGAGTAAACAAATTTTCCTAATCTTTCTGTTCAAGCGCCATCTAC	0.663 RPM ratio (pull-down/input)
GATGATTGTTCTCCCAGCTGATGAATTAACGCCGTCGAGTAAACAAATTTTCCTAATCTTTCTGTTCAAGCGCCATCTAC	0.918 RPM ratio (pull-down/input)
GATGATTGTTCTCCCAGCTGATGAATTGAATGTTTCGAGTAAACAAATTTTCCTAATCTTTCTGTTCAAGCGCCATCTAC	1.01 RPM ratio (pull-down/input)
GATGATTGTTCTCCCAGCTGATGAATTTCTAATATCGAGTAAACAAATTTTCCTAATCTTTCTGTTCAAGCGCCATCTAC	1.09 RPM ratio (pull-down/input)
GATGATTGTTCTCCCAGCTGATGAATTCTCGACATCGAGTAAACAAATTTTCCTAATCTTTCTGTTCAAGCGCCATCTAC	0.911 RPM ratio (pull-down/input)
GATGATTGTTCTCCCAGCTGATGAATTATGCGTGTCGAGTAAACAAATTTTCCTAATCTTTCTGTTCAAGCGCCATCTAC	1.1 RPM ratio (pull-down/input)
GATGATTGTTCTCCCAGCTGATGAATTCGAACCCTCGAGTAAACAAATTTTCCTAATCTTTCTGTTCAAGCGCCATCTAC	0.768 RPM ratio (pull-down/input)
GATGATTGTTCTCCCAGCTGATGAATTGGCACATTCGAGTAAACAAATTTTCCTAATCTTTCTGTTCAAGCGCCATCTAC	0.995 RPM ratio (pull-down/input)
GATGATTGTTCTCCCAGCTGATGAATTCGACGTTTCGAGTAAACAAATTTTCCTAATCTTTCTGTTCAAGCGCCATCTAC	0.886 RPM ratio (pull-down/input)
GATGATTGTTCTCCCAGCTGATGAATTACCTCTTTCGAGTAAACAAATTTTCCTAATCTTTCTGTTCAAGCGCCATCTAC	0.991 RPM ratio (pull-down/input)
GATGATTGTTCTCCCAGCTGATGAATTTCGATCGTCGAGTAAACAAATTTTCCTAATCTTTCTGTTCAAGCGCCATCTAC	0.838 RPM ratio (pull-down/input)
GATGATTGTTCTCCCAGCTGATGAATTAACTTGGTCGAGTAAACAAATTTTCCTAATCTTTCTGTTCAAGCGCCATCTAC	0.851 RPM ratio (pull-down/input)
GATGATTGTTCTCCCAGCTGATGAATTTCCAGTGTCGAGTAAACAAATTTTCCTAATCTTTCTGTTCAAGCGCCATCTAC	0.791 RPM ratio (pull-down/input)
GATGATTGTTCTCCCAGCTGATGAATTCCTGCATTCGAGTAAACAAATTTTCCTAATCTTTCTGTTCAAGCGCCATCTAC	1.17 RPM ratio (pull-down/input)
